# Test results taken from PubChem BioAssay AID504332 (National Center for Advancing Translational Sciences (NCATS), 2011).
# Hit rate of the full screen: of about 350,000 compounds, about 31,000 (8.9%) were called active. Inconclusive means that the source gave no clear call. Such entries were picked first, then a sample of the others. Calls follow the shape of the dose curve; as a rule, active = well fitted inhibition curve with a large enough effect; inconclusive = small, poorly fitted or top-dose-only effect; inactive = no such curve, though single readings can be large or run the other way. A potency beside an inconclusive call is a rough fit, not a confirmed value.
# Target: Histone-lysine N-methyltransferase EHMT2 (Homo sapiens) (UniProt Q96KQ7)
# UniProt Q96KQ7, sequence (Q96KQ7 whole entry, looked up): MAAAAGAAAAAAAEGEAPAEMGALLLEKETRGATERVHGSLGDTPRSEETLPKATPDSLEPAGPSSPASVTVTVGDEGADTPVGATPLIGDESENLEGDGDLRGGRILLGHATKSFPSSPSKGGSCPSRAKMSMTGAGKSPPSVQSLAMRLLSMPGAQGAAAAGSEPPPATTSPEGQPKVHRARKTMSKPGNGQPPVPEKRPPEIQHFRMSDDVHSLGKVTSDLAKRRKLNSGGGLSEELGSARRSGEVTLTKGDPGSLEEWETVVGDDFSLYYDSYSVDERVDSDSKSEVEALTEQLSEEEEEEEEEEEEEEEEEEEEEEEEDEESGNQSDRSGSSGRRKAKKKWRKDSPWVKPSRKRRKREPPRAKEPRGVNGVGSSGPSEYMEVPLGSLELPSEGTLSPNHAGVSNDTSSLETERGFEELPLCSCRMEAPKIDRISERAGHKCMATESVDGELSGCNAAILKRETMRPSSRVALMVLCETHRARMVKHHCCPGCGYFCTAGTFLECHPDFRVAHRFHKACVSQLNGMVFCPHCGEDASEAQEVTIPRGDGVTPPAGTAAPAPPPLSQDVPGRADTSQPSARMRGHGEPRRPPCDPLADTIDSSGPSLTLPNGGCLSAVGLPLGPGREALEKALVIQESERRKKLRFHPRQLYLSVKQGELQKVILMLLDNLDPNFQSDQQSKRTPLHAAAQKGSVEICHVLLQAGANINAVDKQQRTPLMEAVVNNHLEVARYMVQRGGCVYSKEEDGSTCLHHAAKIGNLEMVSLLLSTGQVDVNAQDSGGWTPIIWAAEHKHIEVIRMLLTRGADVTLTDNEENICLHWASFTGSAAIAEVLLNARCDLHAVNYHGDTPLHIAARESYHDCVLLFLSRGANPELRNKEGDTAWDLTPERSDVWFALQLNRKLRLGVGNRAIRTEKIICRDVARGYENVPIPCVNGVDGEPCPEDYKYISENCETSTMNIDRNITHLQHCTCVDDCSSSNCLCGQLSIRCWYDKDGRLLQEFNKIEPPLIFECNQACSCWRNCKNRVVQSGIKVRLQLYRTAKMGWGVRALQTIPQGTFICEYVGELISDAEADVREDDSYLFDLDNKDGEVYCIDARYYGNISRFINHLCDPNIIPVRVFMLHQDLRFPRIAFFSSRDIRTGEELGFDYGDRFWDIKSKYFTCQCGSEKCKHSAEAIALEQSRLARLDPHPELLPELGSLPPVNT
# Assay: qHTS Assay for Inhibitors of Histone Lysine Methyltransferase G9a; also: nearly all actives have a fitted effect of over 75% in size
# Details: G9a H3K9 monomethylation, AlphaScreen, 2 h; activity, negative = inhibition: at 59 µM (top of the series) unless noted
# Method in brief: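 G9a (20 nM) was preincubated 15 min with compound, then reacted 2 h at room temperature with 500 nM biotin-H3K9 peptide and 20 µM SAM. Monomethyl-H3K9 detected by AlphaScreen using anti-H3K9me1 antibody.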
# % is scaled to controls: 0 for no effect and ±100 for the full control effect; potency is read from the fitted curve at half-maximal effect; tags tell the direction and shape of the fitted curve.
Structure (SMILES),"activity, negative = inhibition",Potency
O=C(CN1C(=O)NC2(CCCCCC2)C1=O)c1ccc(Cl)cc1,inconclusive: -61.4% [inhibitor] [at 2.33 µM],
Cn1cccc1/C=C1\SC(=S)N(NC(=O)c2ccc(Cl)cc2)C1=O,,"inconclusive: 7.94 µM [inhibitor, partial curve, poor fit]"
CC1(C)CC(=O)C(C(C2=C(O)CC(C)(C)CC2=O)c2cccc(O)c2)C(=O)C1 (stereo not drawn),inconclusive: -97% [inhibitor],
O=C(N/N=C\c1ccc(Br)o1)C1COc2ccccc2O1 (stereo not drawn),,"inconclusive: 50.1 µM [inhibitor, partial curve]"
O=C(NCc1ccc(F)cc1)c1ccc2c(c1)N(Cc1ccc(F)cc1Cl)C(=O)CS2,,"inconclusive: 39.8 µM [inhibitor, single point]"
Cc1ccc(S(=O)(=O)NCC(=O)OCC(=O)N(C)C2CCS(=O)(=O)C2)cc1 (stereo not drawn),,inactive
CC(=O)Nc1ccc(NC(=O)CNC(=O)c2cccc(C)c2)cc1,,inactive
COc1ccc(C(=O)Nc2ccc3nc(N4CCN(C)CC4)cc(C)c3c2)c(OC)c1,,"inconclusive: 89.1 µM [inhibitor, single point]"
COc1ccccc1N1CCN(CC(=O)c2c(C)n(C)c3ccccc23)CC1,,"inconclusive: 89.1 µM [inhibitor, single point]"
Cc1ccc(C2C=C(c3ccc(Cl)cc3)Nc3nc(NC(=O)CCC(=O)O)nn32)cc1 (stereo not drawn),,"inconclusive: 22.4 µM [inhibitor, partial curve, poor fit]"
CC(C(=O)O)n1c2ccccc2c2cnn(C)c(=O)c21 (stereo not drawn),,active: 44.7 µM
Cn1c2c(c(=O)n(C)c1=O)C(c1ccc(Cl)cc1)C(C#N)=C(N)O2 (stereo not drawn),,"inconclusive: 28.2 µM [inhibitor, single point]"
CCOc1ccc(NC(=O)CCn2c(-c3ccc(F)cc3)cc(C(C)=O)c2C)cc1,,"inconclusive: 22.4 µM [inhibitor, partial curve, poor fit]"
COc1ccc(N/N=C(\C#N)C(N)=O)cc1,,active: 8.91 µM
CSc1ccccc1NC(=O)CN(C)CC(=O)Nc1ccccc1F,,active: 3.55 µM
O=C(CS(=O)(=O)Cc1ccccc1)NCc1ccccc1Cl,,"inconclusive: 44.7 µM [inhibitor, partial curve]"
COc1ccccc1C1C2CCCCC2(O)CCN1CC(=O)Nc1ccccc1 (stereo not drawn),,"inconclusive: 79.4 µM [inhibitor, partial curve, poor fit]"
COc1ccc(/C=N/NC(=S)Nc2cccc(C(=O)O)c2)cc1,,inactive
COc1ccc(-c2csc3ncnc(N4CCN(S(=O)(=O)c5cccc(Br)c5)CC4)c23)cc1,,"inconclusive: 70.8 µM [inhibitor, partial curve, poor fit]"
Cc1[nH][nH]c(=O)c1C(c1ccc(Br)cc1)c1c(C)[nH][nH]c1=O,,inactive
COC(=O)CSc1cc([N+](=O)[O-])ccc1NC(=O)OC,,active: 35.5 µM
CCOC(=O)C1C(C#N)=C(N)OC(C)=C1c1ccncc1 (stereo not drawn),,"inconclusive: 70.8 µM [inhibitor, single point]"
CCOC(=O)c1sc(NC(=O)C(CC)Sc2nccn2C)nc1C (stereo not drawn),,"inconclusive: 28.2 µM [inhibitor, single point]"

Structure (SMILES),"activity, negative = inhibition",Potency
Cc1ccccc1NC(=O)COC(=O)CCc1ccccc1,,inactive
COC(=O)COc1ccc(S(=O)(=O)NCc2ccc3c(c2)OCO3)cc1C,,inactive
CC(=O)OCC1=C(C(=O)O)N2C(=O)C(NC(=O)Cn3nc(C(F)F)c(Cl)c3C)C2SC1 (stereo not drawn),,active: 50.1 µM
O=[N+]([O-])c1ccccc1N/N=C/c1ccc2c(c1)OCO2,,"inconclusive: 39.8 µM [inhibitor, partial curve]"
O=C(CSc1nnc(-c2ccccc2)c(-c2ccccc2)n1)Nc1ccccc1Cl,,"inconclusive: 35.5 µM [inhibitor, partial curve, poor fit]"
N#CCCn1cc(/C=N/NC(N)=S)c(-c2ccc(-c3ccccc3)cc2)n1,,"inconclusive: 17.8 µM [inhibitor, full curve]"
O=C(CCC(=O)N1CC2CCCN2c2ccccc21)NCc1ccccc1F (stereo not drawn),,inactive
CC(=O)N1CCc2cc(S(=O)(=O)C(C)CC(=O)NCc3ccc(C)o3)ccc21 (stereo not drawn),,"inconclusive: 56.2 µM [inhibitor, partial curve, poor fit]"
Cc1ccccc1NC(=S)N(CCc1c(C)[nH]c2ccc(F)cc12)Cc1ccncc1,,"inconclusive: 79.4 µM [inhibitor, single point]"
CC1CN(C(=O)CSc2nc(-c3ccccc3)cs2)CC(C)O1 (stereo not drawn),,"inconclusive: 22.4 µM [inhibitor, single point]"
Cc1ccc(OCC(=O)Nc2ccc(CN3CCOCC3)cc2)cc1,,"inconclusive: 5.01 µM [inhibitor, partial curve, poor fit]"
CN(CC(=O)NCc1ccccc1)Cc1ccc(Cl)cc1,,inactive
O=C(CCNS(=O)(=O)c1ccccc1)NCC1CCCCC1,,"inconclusive: 89.1 µM [inhibitor, single point]"
COc1cccc2c1OC[C@@H](CO)[C@H]2N(C)C(=O)Nc1ccc(Cl)cc1Cl,,inactive
COc1ccc(S(=O)(=O)Nc2cc(C(=O)NC(C)C)ccc2N2CCOCC2)cc1,,"inconclusive: 10 µM [inhibitor, partial curve, poor fit]"
COc1ccc(Nc2nnc(SCC(=O)NC3CC3)s2)cc1,inactive: -15.3% [at 12.7 µM],
CCOC(=O)Cc1c(C)nc2c(-c3ccc(OC)c(OC)c3)c(C)nn2c1C,,"inconclusive: 0.891 µM [inhibitor, full curve, poor fit]"
CCC(O)(CCN1CCCCC1)c1ccccc1 (stereo not drawn),,inactive
O=C1CCC2CCCCC2(O)O1 (stereo not drawn),,"inconclusive: 89.1 µM [inhibitor, partial curve, poor fit]"
O=C(NCc1ccccc1)c1cccc(Nc2nc3ccccc3n3nnnc23)c1,,inactive
Nc1ccccc1SCC(=O)N1CCc2ccccc21,inactive: 10.4% [at 12.7 µM],
COc1cc(/C=C/C(=O)OCC(=O)N2CCN(S(=O)(=O)c3ccc(C)cc3C)CC2)cc(Cl)c1OC,,"inconclusive: 89.1 µM [inhibitor, partial curve, poor fit]"
O=C(NC(=S)Nc1ccc2oc(=O)ccc2c1)c1ccco1,,"inconclusive: 79.4 µM [inhibitor, partial curve, poor fit]"

Structure (SMILES),"activity, negative = inhibition",Potency
Cc1cccc(C)c1OCC(=O)Nc1cccc(NC(=O)c2ccco2)c1,,"inconclusive: 39.8 µM [inhibitor, single point]"
COc1ccc(C(=O)N(Cc2ccco2)Cc2cccs2)c(O)c1,,"inconclusive: 0.794 µM [inhibitor, partial curve, poor fit]"
CCOc1ccccc1N(CC(=O)Nc1ccc2c(c1)OCCO2)S(C)(=O)=O,,"inconclusive: 89.1 µM [inhibitor, single point]"
COCC(C)NS(=O)(=O)c1ccc(NC(=O)C(Cc2ccccc2)NC(N)=O)cc1 (stereo not drawn),,"inconclusive: 89.1 µM [inhibitor, single point]"
COc1ccc(N(C(=O)c2ccncc2)S(=O)(=O)c2ccc(Cl)cc2)cc1,,"inconclusive: 63.1 µM [inhibitor, single point]"
O=C(NC(c1ccccc1)c1cc(Cl)c2cccnc2c1O)c1cccnc1 (stereo not drawn),,inactive
O=S(=O)(Nc1nnc(C(F)(F)F)s1)c1ccc(Cl)cc1,,inactive
COc1nc(N(C)C)nc(-n2nnc(C(C)=O)c2C)n1,,"inconclusive: 56.2 µM [inhibitor, partial curve, poor fit]"
COc1cc(OC)cc(C(=O)Nc2nc(CC(=O)NCc3ccccc3OC)cs2)c1,,"inconclusive: 79.4 µM [inhibitor, partial curve, poor fit]"
CC1CC(C)CN(S(=O)(=O)c2ccc(C(=O)N(c3ccccn3)C3CCCCC3)cc2)C1 (stereo not drawn),,"inconclusive: 79.4 µM [inhibitor, single point]"
Cn1c(=S)[nH]c2[nH]c(=O)cnc2c1=O,,"inconclusive: 39.8 µM [inhibitor, single point]"
Nc1nonc1-n1nnc(C(=O)N/N=C/c2cccc(Cl)c2Cl)c1CN1CCCC1,,"inconclusive: 25.1 µM [inhibitor, single point]"
Nc1nc(-c2cccs2)c(NC(=O)c2ccccc2)s1,,active: 7.94 µM
CCCC1(C)C(C#N)(C#N)C1(C#N)C#N,,active: 8.91 µM
O=C(O)c1ccc2c(=O)n(-c3ccc(F)cc3)c(=S)[nH]c2c1,,"inconclusive: 89.1 µM [inhibitor, partial curve, poor fit]"
Cc1ccc(S(=O)(=O)N2CCN(C(=O)COC(=O)c3cc(C)oc3C)CC2)cc1,,"inconclusive: 79.4 µM [inhibitor, partial curve, poor fit]"
CCC(=O)N1CCc2cc(S(=O)(=O)NCCC(=O)NC(C)c3ccccc3)ccc21 (stereo not drawn),,inactive
O=C(CN1CCN(S(=O)(=O)c2ccc3ccccc3c2)CC1)Nc1ccc(N2CCOCC2)cc1,,active: 39.8 µM
COc1ccc(/C=C/c2nc(-c3ccccc3O)n(-c3ccccc3)n2)cc1OC,,inactive
COc1ccc(CN2CC(C(=O)NCCCN3CCCCCC3)CC2=O)cc1 (stereo not drawn),,"inconclusive: 17.8 µM [inhibitor, partial curve]"
COc1ccc(C(C2C(=O)CC(C)(C)CC2=O)C2C(=O)CC(C)(C)CC2=O)cc1COCC(F)(F)F,,"inconclusive: 39.8 µM [inhibitor, single point]"
CCCc1cc(=O)oc2c3c(cc(OCC(=O)N[C@@H](CSC)C(=O)O)c12)OC(C)(C)CC3,,"inconclusive: 89.1 µM [inhibitor, partial curve, poor fit]"
